# Data taken from the supplement of paper PMC8728848.
# The other results are listed elsewhere or left out.
# B1: EULS2 M2 (Oryza sativa) (protein)
# chain: MVYCRANPNYAMTARNGAVVLAPANPKDEYQHWIKDMRWSTSIKDEEGYPAFALVNKATGQAIKHSLGQSHPVRLVPYNPEVMDESVLWTESRDVGNGFRCIRMVNNIYLNFDAFHGDKYHGGVRDGTDIVLWKLCEGDSQRWKIQPYYILEQKLISEEDLNSAVDHHHHHH
# Legend:
# Assay in all cases: glycan array binding signal (z-score within array); higher = stronger binding
# Details in all cases: glycan notation: IUPAC condensed, linker removed
# Gal(b1-4)Glc = biological target: Gal(b1-4)Glc
# Procedure, shortened: (§1)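 The binding signal is a Z-score computed within each array. Data were drawn from 3228 arrays in the Consortium for Functional Glycomics database, restricted to those with a known protein sequence. Scores were averaged over arrays of the same protein sequence at different concentrations or buffers, and over linkers, and negative values can be taken as non-binding.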
# Gal(b1-4)Glc6S = biological target: Gal(b1-4)Glc6S
# Procedure, shortened: as §1
# Gal(b1-4)GlcNAc = biological target: Gal(b1-4)GlcNAc
# Procedure, shortened: as §1
# [1] = biological target: Gal(b1-4)GlcNAc(a1-6)Gal(b1-4)GlcNAc
# Procedure, shortened: as §1
# Gal(b1-4)GlcNAc(b1-2)Man = biological target: Gal(b1-4)GlcNAc(b1-2)Man
# Procedure, shortened: as §1
# [2] = biological target: Gal(b1-4)GlcNAc(b1-2)Man(a1-3)Man(b1-4)GlcNAc(b1-4)GlcNAc
# Procedure, shortened: as §1
# [3] = biological target: Gal(b1-4)GlcNAc(b1-2)Man(a1-3)[Gal(b1-4)GlcNAc(b1-2)Man(a1-6)]Man(b1-4)GlcNAc(b1-4)GlcNAc
# Procedure, shortened: as §1
# [4] = biological target: Gal(b1-4)GlcNAc(b1-2)Man(a1-3)[Gal(b1-4)GlcNAc(b1-2)Man(a1-6)]Man(b1-4)GlcNAc(b1-4)[Fuc(a1-6)]GlcNAc
# Procedure, shortened: as §1
# [5] = biological target: Gal(b1-4)GlcNAc(b1-2)Man(a1-3)[Gal(b1-4)GlcNAc(b1-2)Man(a1-6)][Gal(b1-4)GlcNAc(b1-4)]Man(b1-4)GlcNAc(b1-4)[Fuc(a1-6)]GlcNAc
# Procedure, shortened: as §1
# [6] = biological target: Gal(b1-4)GlcNAc(b1-2)Man(a1-3)[Gal(b1-4)GlcNAc(b1-2)Man(a1-6)][GlcNAc(b1-4)]Man(b1-4)GlcNAc(b1-4)[Fuc(a1-6)]GlcNAc
# Procedure, shortened: as §1
# [7] = biological target: Gal(b1-4)GlcNAc(b1-2)Man(a1-3)[GlcNAc(b1-2)Man(a1-6)]Man(b1-4)GlcNAc(b1-4)GlcNAc
# Procedure, shortened: as §1
# [8] = biological target: Gal(b1-4)GlcNAc(b1-2)Man(a1-3)[GlcNAc(b1-4)][Gal(b1-4)GlcNAc(b1-2)Man(a1-6)]Man(b1-4)GlcNAc(b1-4)GlcNAc
# Procedure, shortened: as §1
# [9] = biological target: Gal(b1-4)GlcNAc(b1-2)Man(a1-3)[Man(a1-6)]Man(b1-4)GlcNAc(b1-4)GlcNAc
# Procedure, shortened: as §1
# [10] = biological target: Gal(b1-4)GlcNAc(b1-2)Man(a1-6)Man(b1-4)GlcNAc(b1-4)GlcNAc
# Procedure, shortened: as §1
# [11] = biological target: Gal(b1-4)GlcNAc(b1-2)Man(a1-6)[GlcNAc(b1-2)Man(a1-3)]Man(b1-4)GlcNAc(b1-4)GlcNAc
# Procedure, shortened: as §1
# [12] = biological target: Gal(b1-4)GlcNAc(b1-2)Man(a1-6)[Man(a1-3)]Man(b1-4)GlcNAc(b1-4)GlcNAc
# Procedure, shortened: as §1
# [13] = biological target: Gal(b1-4)GlcNAc(b1-2)[Gal(b1-4)GlcNAc(b1-4)]Man(a1-3)[Gal(b1-4)GlcNAc(b1-2)Man(a1-6)]Man(b1-4)GlcNAc(b1-4)GlcNAc
# Procedure, shortened: as §1
# [14] = biological target: Gal(b1-4)GlcNAc(b1-2)[Gal(b1-4)GlcNAc(b1-4)]Man(a1-3)[Gal(b1-4)GlcNAc(b1-2)[Gal(b1-4)GlcNAc(b1-6)]Man(a1-6)]Man(b1-4)GlcNAc(b1-4)GlcNAc
# Procedure, shortened: as §1
# [15] = biological target: Gal(b1-4)GlcNAc(b1-2)[Gal(b1-4)GlcNAc(b1-4)]Man(a1-3)[GlcNAc(b1-4)][Gal(b1-4)GlcNAc(b1-2)Man(a1-6)]Man(b1-4)GlcNAc(b1-4)GlcNAc
# Procedure, shortened: as §1
# [16] = biological target: Gal(b1-4)GlcNAc(b1-2)[Gal(b1-4)GlcNAc(b1-4)]Man(a1-3)[GlcNAc(b1-4)][Gal(b1-4)GlcNAc(b1-2)[Gal(b1-4)GlcNAc(b1-6)]Man(a1-6)]Man(b1-4)GlcNAc(b1-4)GlcNAc
# Procedure, shortened: as §1
# [17] = biological target: Gal(b1-4)GlcNAc(b1-2)[Gal(b1-4)GlcNAc(b1-6)]Man(a1-6)[Gal(b1-4)GlcNAc(b1-2)Man(a1-3)]Man(b1-4)GlcNAc(b1-4)GlcNAc
# Procedure, shortened: as §1
# [18] = biological target: Gal(b1-4)GlcNAc(b1-2)[Gal(b1-4)GlcNAc(b1-6)]Man(a1-6)[Gal(b1-4)GlcNAc(b1-2)Man(a1-3)]Man(b1-4)GlcNAc(b1-4)[Fuc(a1-6)]GlcNAc
# Procedure, shortened: as §1
binder,measurement,setting,value
B1,glycan array binding signal (z-score),Gal(b1-4)Glc,-0.454
same,glycan array binding signal (z-score),Gal(b1-4)Glc6S,1.14
same,glycan array binding signal (z-score),Gal(b1-4)GlcNAc,-0.531
same,glycan array binding signal (z-score),[1],-0.38
same,glycan array binding signal (z-score),Gal(b1-4)GlcNAc(b1-2)Man,-0.43
same,glycan array binding signal (z-score),[2],0.321
same,glycan array binding signal (z-score),[3],0.132
same,glycan array binding signal (z-score),[4],-0.102
same,glycan array binding signal (z-score),[5],0.393
same,glycan array binding signal (z-score),[6],0.853
same,glycan array binding signal (z-score),[7],-0.355
same,glycan array binding signal (z-score),[8],0.091
same,glycan array binding signal (z-score),[9],0.185
same,glycan array binding signal (z-score),[10],-0.754
same,glycan array binding signal (z-score),[11],-0.086
same,glycan array binding signal (z-score),[12],1.71
same,glycan array binding signal (z-score),[13],-0.224
same,glycan array binding signal (z-score),[14],-0.536
same,glycan array binding signal (z-score),[15],-0.154
same,glycan array binding signal (z-score),[16],-0.935
same,glycan array binding signal (z-score),[17],0.359
same,glycan array binding signal (z-score),[18],-0.293
